# Out of some 410,000 compounds screened, about 310 (0.076%) were called active. The inconclusive results got no clear call from the source; some entries with a clear call stand among them for comparison. Calls come from the whole dose curve; as a rule, active = well fitted curve in the direction sought with a large enough effect; inconclusive = small, poorly fitted or top-dose-only effect; inactive = flat fitted curve, though single readings scatter. Where the call is inconclusive, the potency comes from a doubtful curve fit.
# Molecular target: DNA dC->dU-editing enzyme APOBEC-3G (Homo sapiens) (UniProt Q9HC16)
# Sequence of UniProt Q9HC16 (Q9HC16 whole entry, looked up): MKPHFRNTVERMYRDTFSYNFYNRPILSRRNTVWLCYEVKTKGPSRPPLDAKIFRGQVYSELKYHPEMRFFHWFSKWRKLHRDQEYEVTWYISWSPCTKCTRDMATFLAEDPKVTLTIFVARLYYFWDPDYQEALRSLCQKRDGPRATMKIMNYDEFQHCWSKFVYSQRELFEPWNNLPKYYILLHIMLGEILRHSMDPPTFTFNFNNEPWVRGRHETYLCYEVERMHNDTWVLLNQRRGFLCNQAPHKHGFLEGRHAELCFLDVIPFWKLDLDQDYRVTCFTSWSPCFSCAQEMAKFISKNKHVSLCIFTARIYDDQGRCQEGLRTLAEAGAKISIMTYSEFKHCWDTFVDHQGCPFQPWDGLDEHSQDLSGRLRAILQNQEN
# Assay: qHTS for Inhibitors of Vif-A3G Interactions: qHTS; note: nearly all actives have a fitted effect of over 60% in size;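 for activity, negative = active: hits raise eYFP signal because A3G escapes Vif-driven loss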
# Conditions: HeLa A3G-eYFP + Vif (tagged APOBEC3G with the HIV-1 protein that degrades it), YFP fluorescence, overnight; series mostly up to 46.1 µM; activity, negative = active: at the top concentration
# Procedure, shortened: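 HeLa cells stably expressing Vif and C-terminally eYFP-tagged A3G, seeded overnight at 37 deg C, then exposed to compound by pintool overnight at 37 deg C. Rise in yellow fluorescence (Ex 488/Em 500-530, Acumen) marks blocked Vif-driven A3G degradation.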
# % is set by controls: 0 for no effect and ±100 for the full control effect; potency is the fitted concentration of half-maximal effect; tags give direction and shape of the fitted curve.
Structure (SMILES),"activity, negative = active",Potency
CCOC(=O)NC1(NCC(C)C)Oc2ccccc2O1,inactive: -6.45%,–
O=C(Cc1ccc(Cl)cc1)Nc1ccc(-c2cc3ccccc3oc2=O)c(Cl)c1,–,"inconclusive: 1.12 µM [inhibitor, full curve, poor fit]"
Cc1ccc(C(=O)N/C(=C\c2ccc(-c3ccc(Cl)cc3)o2)C(=O)NCCCN(C)C)cc1,–,"inconclusive: 35.5 µM [inhibitor, single point]"
CCOC(=O)c1sc(=NC(=O)c2ccc(C)c(C)c2)n(C)c1C,inactive: 5.7%,–
O=S(=O)(c1ccc(F)cc1)c1snnc1-c1ccccc1,–,"inconclusive: 22.4 µM [inhibitor, single point]"
O=[N+]([O-])c1cccc(NN=Nc2ccccc2)c1,inactive: -5.26%,–
NC(=O)CC(NC(=O)Cc1cccc2ccccc12)c1ccc(NCc2ccc(F)cc2)c([N+](=O)[O-])c1 (configuration not stated),–,"inconclusive: 22.4 µM [inhibitor, single point]"
CC(C)c1[nH]nc2c1C(c1cccs1)C(C#N)=C(N)O2 (configuration not stated),–,"inconclusive: 31.6 µM [inhibitor, single point]"
Cc1ccc(S(=O)(=O)C(CNS(=O)(=O)c2ccc(F)c(C)c2)c2cccs2)cc1 (configuration not stated),inactive: 7.19%,–
COc1ccccc1NC(=O)C(C)N(C)CC(=O)Nc1cccc2ccccc12 (configuration not stated),inactive: -0.872%,–
CC(=O)NC1=NN(C(C)=O)C(C)(c2cccnc2)S1 (configuration not stated),–,"inconclusive: 35.5 µM [inhibitor, partial curve, poor fit]"
Cc1cc(/C=C2/NC(=O)NC2=O)c(C)n1-c1ccc(C#N)cc1,inactive: -0.432%,–
Cc1cccc(NC(=O)N2CC=C(c3c[nH]c4ccccc34)CC2)c1C,–,"inconclusive: 17.8 µM [inhibitor, single point]"
COc1ccc(NC(=O)C2Cc3c(-c4cccc(C(N)=O)c4)ccnc3O2)cn1 (configuration not stated),–,"inconclusive: 17.8 µM [inhibitor, single point]"
COc1ccc(/C=N/NC(=O)c2cc3c(OC)ccc(OC)c3[nH]2)cc1O,–,"inconclusive: 1.41 µM [inhibitor, full curve, poor fit]"
Cc1ccc(C(=O)N/N=C\c2cc(Br)c(Br)o2)cn1,–,"inconclusive: 11.2 µM [inhibitor, single point]"
COc1ccc(CN2CC(=O)N3[C@H]4c5ccc(OC)cc5OC[C@@H]4[C@H](c4ccccc4)[C@]3(C)C2=O)cc1,inactive: 0.372%,–
Cc1cc(C(=O)CCl)c(C)n1CCc1ccccc1,–,"inconclusive: 35.5 µM [inhibitor, single point]"
COCCCNC(=S)N1CCN(S(=O)(=O)c2ccc(OC)cc2)CC1,inactive: 0.25%,–
Cc1ccc(O)c(C(=O)c2cc(C#N)c(=O)n(-c3nccs3)c2)c1,–,"inconclusive: 22.4 µM [inhibitor, single point]"
O=C(Cc1ccc(N2CCNC2=O)cc1)N1CCCC(Nc2ccc(F)c(F)c2)C1 (configuration not stated),–,"inconclusive: 2 µM [inhibitor, full curve, poor fit]"

Structure (SMILES),"activity, negative = active",Potency
COCCNc1nc(NCc2cccc(OC)c2)c2sc(-c3ccccc3)cc2n1,–,"inconclusive: 22.4 µM [inhibitor, single point]"
CCOC(=O)N1CCN(C(=O)CCN2C(=O)/C(=C\c3ccc(OC)c(OC)c3)SC2=S)CC1,–,"inconclusive: 35.5 µM [inhibitor, single point]"
CCN1CCN(CCCNC(=O)c2ccc3c(c2)NC(=O)/C(=C\c2cccc(C)c2)S3)CC1,–,"inconclusive: 22.4 µM [inhibitor, partial curve, poor fit]"
COC(=O)c1cc(NC(=O)[C@H](CCS(C)(=O)=O)N2Cc3ccccc3C2=O)cc(C(=O)OC)c1,inactive: 1.59%,–
COc1cc(C2CC(=O)N(Cc3ccc(F)cc3)c3ccccc3S2)cc(OC)c1OC (configuration not stated),inactive: -0.121%,–
CCN(CC)c1ccc(C=C2SC(=S)NC2=O)cc1,–,"inconclusive: 3.16 µM [inhibitor, partial curve, poor fit]"
O=C1c2ccccc2OC2(C=Cc3ccccc3O2)N1Cc1ccccc1 (configuration not stated),–,"inconclusive: 3.16 µM [inhibitor, full curve, poor fit]"
COc1cc(NC(=O)Cn2ncc(Cl)c(Cl)c2=O)c(C)cc1[N+](=O)[O-],–,"inconclusive: 7.08 µM [inhibitor, partial curve, poor fit]"
O=C(NCc1ccc2c(c1)OCO2)c1nc(S(=O)(=O)Cc2ccccc2F)ncc1Cl,–,"inconclusive: 11.2 µM [inhibitor, single point]"
CCC(C)n1c(SCc2c(F)cccc2Cl)nc2ccsc2c1=O (configuration not stated),–,"inconclusive: 3.16 µM [inhibitor, single point]"
COCCn1c(SCc2cc(=O)n3ccsc3n2)nnc1-c1ccncc1,inactive: 3.05%,–
Cc1cc(=O)oc2cc(OCC(=O)N3CC(C)OC(C)C3)ccc12 (configuration not stated),inactive: -2.1%,–
CCOc1ccccc1NC(=O)Cn1c(=O)n(CCCC(=O)NCCc2ccc(C)cc2)c(=O)c2ccccc21,inactive: -4.88%,–
O=C(Nc1ccc2c(c1)CCCN2C(=O)c1cccs1)c1c(F)cccc1F,–,"inconclusive: 7.08 µM [inhibitor, partial curve, poor fit]"
COc1ccc(NC(=O)C2(C)Cc3c(-c4ccccc4)ccnc3O2)cn1 (configuration not stated),–,"inconclusive: 8.91 µM [inhibitor, partial curve]"
CCOC(=O)CC(S(=O)(=O)c1ccccc1)S(=O)(=O)c1ccccc1,–,"inconclusive: 12.6 µM [inhibitor, single point]"
C=C(CN(C)C)C(=O)c1cc(C)ccc1C,–,"inconclusive: 12.6 µM [inhibitor, partial curve, poor fit]"
Cc1ccc2nc(C)c3c(c2c1)N(c1ccc(F)cc1)CC3,inactive: -1.15%,–
CN(C)c1ccc(/C=C/c2ccnc3c2ccc2ccccc23)cc1,–,"inconclusive: 31.6 µM [inhibitor, single point]"
O=C(NCc1ccc2c(c1)OCO2)c1cc([N+](=O)[O-])ccc1N1CCOCC1,–,"inconclusive: 5.01 µM [inhibitor, partial curve]"
COc1ccc([C@H]2CC(=O)C=C(c3ccc(F)nc3)C2)cc1OC,–,"inconclusive: 35.5 µM [inhibitor, single point]"
